Source: the supplement of paper PMC11417369
± gives the standard deviation of the averaged measurements. Some of the results follow.

Tested on: PfAP2-G AP2 domain (GST-tagged)
Assay: gcPBM binding intensity (ln(normalized median fluorescence intensity)); higher = stronger DNA binding
Summary of the method: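 GST-fused DNA-binding domains of P. falciparum, expressed in E. coli, were applied at about 25 μg on average for 1 h to an Agilent 4 × 180k array of primer-extended double-stranded 36-bp intergenic genomic probes and negative controls. Binding intensity is the highest Masliner-normalised natural-log median intensity across replicate spots of either probe orientation, measured with Alexa488 anti-GST antibody and a 488 nm scan.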

Sequence | gcPBM binding intensity (ln)
AAGGTATAGAAACACACACACGTGAATATAGTTTAA [CACACA_site5109] | 10.01 ± 0.028
AGGATATATTATATGTACACACACATATAAGGGATT [GTGCAC_negctrl_site47] | 11.4 ± 0.79
TATTACACACAATATTGTACACATAGGAAAAATATT [XGTACX_site1726] | 11.4 ± 0.91
GCATTTATGAAAAATGTACACACATCAAATGCTTAT [CACACA_site9347] | 11.2 ± 0.83
ACAAAAATATTTGTAAAAAGAAATATAAATAAATAA [TGCATGCA_negctrl_site357] | 9.725 ± 0.092
AAAAATAGAGCAGCTCTCATATTTTTATGTGCAATA [CACACA_negctrl_site837] | 9.69 ± 0.071
AAATAAAATAAAAGCACACAAAATGTAAATAATTAT [CACACA_site2775] | 10.01 ± 0.035
GATTATCTATCGCTTGAATGAAATGAAATCATGCAA [GTGCAC_negctrl_site471] | 9.725 ± 0.064
ATAATAAATGATAGCACACATATGTACATATATACA [CACACA_site864] | 11.3 ± 0.64
AATACCGGAAAGCAAACACACATTTTAAAACCATAA [CACACA_site3862] | 10.2 ± 0.2
AAAGAAATAAAAAAAAGTACACAATTATAAATATAT [XGTACX_site3428] | 11.5 ± 0.93
GTATGTAATATTTTAGTGCAAAAAAAAAAAAAAAAA [GTGCAC_site9790] | 9.8 ± 0.4
AAAATACTTTGAATTTGTACATATAGACATAATATT [XGTACX_site6181] | 10.7 ± 0.38
CGCGAACATACATACACACACATATTTATATAGGTA [CACACA_site6241] | 10.1 ± 0.042
TTCTGCTACCACTTGAATGTCAATGAAATTAAAAAA [CACACA_negctrl_site1164] | 10.6 ± 0.74
TATATATATATAATTTGTACATATATATGTAACAAT [XGTACX_site8728] | 11.1 ± 0.69
ATACAATACACCGAACGTACATAAATCTATCTTTTA [XGTACX_site3668] | 11.1 ± 0.69
ATTTTTTTTTTTACAGTGGAACCATATTTGCTCATT [CACACA_negctrl_site940] | 10.3 ± 0.38
ATTTATAAAACAGGCACACATATAATAAATTTTATA [CACACA_site2600] | 10.05 ± 0.092
TAATAATTATTGCACGCACACAAAAACCTATAGATT [CACACA_site2931] | 10.4 ± 0.27
ACTATAAATATTTATAAACACACAAATATATATATT [CACACA_site7891] | 10.2 ± 0.18
TTTTAATTAAAAAAATATATAATAAAATTAAATTAT [CACACA_negctrl_site95] | 9.69 ± 0.11

Sequence | gcPBM binding intensity (ln)
GGTATATAAAAATATTGTACGAAAATATGCATATAA [XGTACX_site2501] | 10.9 ± 0.5
CAAAAAAAATTATACACACACACACCGATATATATA [CACACA_site4719] | 10.07 ± 0.057
TTTATATATCAATACATTATGTATTAAGTCTTACAT [TGCATGCA_negctrl_site499] | 9.96 ± 0.13
AGGAACAATATATTTGCACACAAAAAATATATATTT [CACACA_site3316] | 10.03 ± 0.042
TTTTAAAAAAAACAAAAACATTGTCATATGGAAAAT [CACACA_negctrl_site297] | 10.2 ± 0.13
GTATGTTAATTTAATTGTACAAAAAGATACACTGAT [XGTACX_site5710] | 11 ± 0.56
AAATATAAAAAATATACACACATATAAAATCTATAT [CACACA_site7406] | 9.72 ± 0.13
ATTTAATTCTTTTGTTATAAAATTTTAGTATATATA [CACACA_negctrl_site1649] | 9.835 ± 0.064
ATGTTAATCATTAAAAATAAAGTTTAATATAAGAAT [XGTACX_negctrl_site155] | 10 ± 0.18
CAAAACAAGCAAAAATGTACTTGATAAATATTTTCT [XGTACX_site1776] | 10.8 ± 0.54
AACATACCCATATACACACACACATAAATACAGATA [CACACA_site4744] | 10.2 ± 0.24
AAATATTCTTGTTTAATACACACTGTAGTATTATAT [CACACA_site433] | 10.2 ± 0.2
TGTGCAAGATTTTTCTGTACATATATATAAATATAT [XGTACX_site1796] | 10.9 ± 0.67
GAATAAGATAGATATACACACCATTATAAATATAAA [CACACA_site5392] | 9.95 ± 0.18
GCTAAAAGTATATGCACACACATATATATGCACATA [CACACA_site1635] | 10.1 ± 0.14
TTTTGTACTTCATGCGTGCACAGAAATATATTATAT | 11.5 ± 0.93
TAAATACTAATATGTACACACATATAGATATAGATT [CACACA_site7247] | 11.3 ± 1
TTAAATAGATAAACTAAACACACAAAAAAAAAAAAA [CACACA_site8308] | 9.7 ± 0.16
AAAAAGGTTAAGGTAGTGCATAATAAAGAATATTAA | 10.4 ± 0.38
ATTTATATTTGTATTTGTACTTATATTTATATTTAT [XGTACX_site1540] | 11.1 ± 0.73
GCTTTTGTCATGTGCACACACGTATATATTATATAT [CACACA_site6146] | 10.7 ± 0.19
TTTTTTAAGTAATGAAATGATTTTCTTATAGAATAA [GTGCAC_negctrl_site395] | 9.575 ± 0.007
